# From PubChem BioAssay AID1768 (National Center for Advancing Translational Sciences (NCATS), 2009)
# Among all 270,000 compounds or so, about 620 (0.23%) were called active. The shares of active, inactive and inconclusive entries below differ from those in the screen. The call rests on the fitted dose curve; in most records, active means well fitted inhibition curve with a large enough effect in the polarisation, with a control signal flat (not every such curve was filed as active); inconclusive means small, poorly fitted or top-dose-only effect, or effect the other way, or a change in a side signal; inactive means no such curve, though single readings can be large or run the other way; the % refers to the polarisation. Where the call is inconclusive, the potency comes from a doubtful curve fit. A note “side channel” means that the fit belongs to a control or component signal, not to the main read-out.
# Molecular target: Menin (Homo sapiens) (UniProt O00255)
# Experiment: qHTS Assay for Inhibitors Targeting the Menin-MLL Interaction in MLL Related Leukemias: Competition With Texas Red Labeled MLL-derived Mutant Peptide; on FP activity change, negative = inhibition: % of control where 0% means no effect
# Conditions: fluorescence polarization; FP activity change, negative = inhibition: at 61.6 µM (top of the series)
# Potency means the concentration at half of the fitted maximal effect; tags describe the fitted curve by direction and shape or compound fluorescence and quenching.
# Sequence of UniProt O00255 (O00255 whole entry, looked up): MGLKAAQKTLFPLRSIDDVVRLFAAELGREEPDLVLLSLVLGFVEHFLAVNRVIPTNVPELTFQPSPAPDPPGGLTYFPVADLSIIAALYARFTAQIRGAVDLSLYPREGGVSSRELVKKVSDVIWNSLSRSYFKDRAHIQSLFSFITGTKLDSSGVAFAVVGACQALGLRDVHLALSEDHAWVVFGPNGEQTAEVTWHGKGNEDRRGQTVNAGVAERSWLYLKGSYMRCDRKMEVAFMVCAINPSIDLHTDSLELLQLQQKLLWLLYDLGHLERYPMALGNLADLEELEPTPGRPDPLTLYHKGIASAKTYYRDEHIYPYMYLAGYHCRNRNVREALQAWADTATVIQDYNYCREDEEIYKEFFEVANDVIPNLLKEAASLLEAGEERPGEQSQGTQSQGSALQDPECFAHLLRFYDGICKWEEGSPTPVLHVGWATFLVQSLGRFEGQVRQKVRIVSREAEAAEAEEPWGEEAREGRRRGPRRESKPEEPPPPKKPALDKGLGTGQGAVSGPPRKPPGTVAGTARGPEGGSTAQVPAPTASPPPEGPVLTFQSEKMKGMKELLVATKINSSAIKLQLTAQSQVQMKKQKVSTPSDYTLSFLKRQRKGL
Compound,Potency,"FP activity change, negative = inhibition"
CSc1cccc(NC(=O)Nc2nc3c(C)cccc3s2)c1,"inconclusive: 3.16 µM [quencher, partial curve]",
Cc1c(C(=O)CN2CCCC(C)(C)C2)c2ccccc2n1C,"inconclusive: 39.8 µM [fluorescent, side channel, single point]",
CCCCCSc1nnc(-c2cc(Br)ccc2N)c(=O)[nH]1,"inconclusive: 39.8 µM [quencher, side channel, single point]",
CC(=O)N1CCN(S(=O)(=O)c2ccc(F)c(Cl)c2)CC1,"inconclusive: 14.1 µM [inhibitor, partial curve]",
O=C(O)CSc1cc(NS(=O)(=O)c2ccc(Cl)cc2)c2ccccc2c1O,"inconclusive: 10 µM [quencher, side channel, partial curve]",
Cc1cccc(C2=NN(c3ccc(Br)cc3)[C@@H](C(=O)N3CCOC3=O)[C@@H]2c2ccc(Cl)cc2)c1,"inconclusive: 11.2 µM [inhibitor, partial curve]",
Nc1ccc2cc3ccc(N)cc3nc2c1,inactive,
Nc1nc(-c2ccccc2)nc2sc3c(c12)CCCC3,"inconclusive: 25.1 µM [quencher, side channel, single point]",
O=[N+]([O-])c1cc(Cl)ccc1Sc1cccc2cccnc12,"inconclusive: 31.6 µM [quencher, side channel, single point]",
O=C(Nc1ccc(-c2cn3ccccc3n2)cc1)c1ccc(Cl)cc1,"inconclusive: 20 µM [inhibitor, single point]",
O=c1cc(-c2ccc(O)cc2)oc2cccc(O)c12,"inconclusive: 10 µM [quencher, side channel, full curve]",
CCOC(=O)C1CCCN(CCC(=O)Nc2cccc(C)c2)C1 (stereo unspecified),"inconclusive: 31.6 µM [quencher, side channel, partial curve]",
CCCOc1cccc(C(=O)N(Cc2ccc(OC)c(OC)c2)C2CCS(=O)(=O)C2)c1 (stereo unspecified),"inconclusive: 12.6 µM [fluorescent, side channel, partial curve, poor fit]",
O=C(CC(C(=O)O)C1CCCO1)NCc1ccccc1 (stereo unspecified),"inconclusive: 0.708 µM [inhibitor, partial curve, poor fit]",
CCNC(=O)/C(C#N)=C/c1c(N2CCN(c3ccc(OC)cc3)CC2)nc2c(C)cccn2c1=O,"inconclusive: 10 µM [inhibitor, partial curve]",
c1ccc(-c2ccc3c(c2)NCCN3)cc1,"inconclusive: 31.6 µM [quencher, side channel, single point]",
COc1ccccc1-c1cnn2c(NCCc3ccccc3)cc(C)nc12,"inconclusive: 25.1 µM [quencher, side channel, partial curve]",
O=C(NCCOc1ccccc1)c1cc(C(=O)NCCOc2ccccc2)cc([N+](=O)[O-])c1,"inconclusive: 11.2 µM [quencher, side channel, partial curve]",

Compound,Potency,"FP activity change, negative = inhibition"
O=C(Nc1nccs1)c1ccc(COc2ccc(F)cc2)o1,"inconclusive: 31.6 µM [quencher, side channel, partial curve]",
Cc1cc(C(=O)N/N=C/c2cccnc2)c(C)o1,"inconclusive: 3.98 µM [inhibitor, partial curve]",
Cc1cc(/C=C(\C#N)C(=O)NCc2ccco2)c(C)[nH]1,"inconclusive: 39.8 µM [inhibitor, single point]",
Cc1ccccc1Cn1cccc1/C=C1/C(=N)N2C=CSC2=NC1=O,"inconclusive: 28.2 µM [quencher, single point]",
OCCOCCOCCn1c2ccccc2c2ccccc21,"inconclusive: 4.47 µM [inhibitor, single point]",
COc1ccc(S(=O)(=O)Nc2c(C(=O)O)[nH]c3ccccc23)cc1OC,"inconclusive: 39.8 µM [quencher, side channel, single point]",
COc1ccc(NC(=S)N2CCCC(c3nc4ccc(C)cc4[nH]3)C2)cc1 (stereo unspecified),"inconclusive: 8.91 µM [quencher, side channel, partial curve, poor fit]",
O=C(COc1ccccc1Cl)Nc1cc(Cl)ccc1Oc1ccccc1,"inconclusive: 3.16 µM [inhibitor, partial curve]",
CCOc1ccc(S(=O)(=O)N2CCC(C(=O)NCCc3ccccc3)CC2)cc1,"inconclusive: 14.1 µM [inhibitor, partial curve]",
Clc1ccc(CSc2nnc(-c3ccccn3)n2Cc2ccco2)c(Cl)c1,"inconclusive: 1.78 µM [fluorescent, side channel, partial curve, poor fit]",
CCn1cc(Cl)c(C(=O)Nc2nc3ccccc3n2CCN2CCCCC2)n1,,inactive: -2.4% [at 11.7 µM]
C=C(C)C(O)/C=C/c1ccccc1OC (stereo unspecified),"inconclusive: 3.98 µM [quencher, side channel, single point]",
Cc1cccn2c(=O)c3cc(S(=O)(=O)c4ccccc4)c(=N)n(Cc4ccco4)c3nc12,"inconclusive: 25.1 µM [quencher, side channel, partial curve]",
Cc1ccc(NC(=O)Cn2nnc(C(=O)NCCc3ccccc3)c2N)cc1Cl,"inconclusive: 22.4 µM [fluorescent, side channel, single point]",
CCc1ccc2nc(N3C(=O)C(O)=C(C(=O)c4ccco4)C3c3cccs3)sc2c1 (stereo unspecified),"inconclusive: 28.2 µM [quencher, partial curve]",
O=C(CSc1nc2nn(-c3ccccc3)c(=O)c-2c2n1CCCCC2)NCCCc1ccccc1,"inconclusive: 31.6 µM [fluorescent, side channel, single point]",
CCOc1ccccc1NC(=O)c1ccc(CN2CCc3ccccc3C2)cc1,"inconclusive: 10 µM [fluorescent, side channel, partial curve, poor fit]",
Cc1cccc(N2CCN(C(=O)c3cccc(N4C(=O)C5C6C=CC(C6)C5C4=O)c3)CC2)c1C (stereo unspecified),"inconclusive: 22.4 µM [fluorescent, side channel, partial curve]",
